Four molecules from article PMC12796321, “The genetic and biochemical basis of human leading strand synthesis” can be followed below.

The target in test [1] is POLE1, catalytic subunit of human DNA Polymerase Epsilon, with N-terminal streptavidin tag (human) (UniProt Q07864). Kind of test: cross-linking; DSBU cross-linking mass spectrometry of the purified full Polε complex; trypsin digest, LC-MS/MS, MeroX, FDR 5%; both purified.
Test [2] has the same target. Kind of test: co-purification; subunits co-expressed in Sf9 cells from one biGBac vector; lysate over HiTrap TALON, then StrepTrap XT (streptavidin tag on POLE1), then Superdex200 size exclusion; Coomassie-stained gel of the purified complex. (In general: In gel filtration, larger molecules generally elute earlier.)
A further test deals with WT FLAG-POLE1 (human) (UniProt Q07864). Put plainly: co-IP; FLAG immunoprecipitation (M2 anti-FLAG agarose, 2 h at 4 °C) from 2 mg whole-cell extract of transiently transfected 293T cells; lysis buffer 50 mM HEPES pH 7.5, 1% Triton X-100, 150 mM NaCl, 5 mM EGTA; endogenous partner detected by Western blot. A general note: In western blotting, separated proteins are transferred to a membrane and probed.

For the next test, the target named is T1, FLAG-POLE4 D53K (human) (UniProt Q9NR33).
T1 sequence: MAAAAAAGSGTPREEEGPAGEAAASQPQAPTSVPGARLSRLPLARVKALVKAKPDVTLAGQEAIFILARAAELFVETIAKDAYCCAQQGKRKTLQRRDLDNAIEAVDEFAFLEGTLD
The description is as above.

The target of another test is WT FLAG-POLE3 (human) (UniProt Q9NRF9). The description is as above.
The target in a further test is T2, WT FLAG-POLE4 (human) (UniProt Q9NR33).
T2 sequence: T1 sequence with K53D
The description is as above.

Changes are numbered by the printed parent chain. Results are given in words; binding and its absence hold for the method and conditions named. For some assays here: Binding seen in cells or lysates may run through a third protein. Some binding calls cover weakened binding; strength is not graded here. For some assays here: Where a sequence is shown, tags or fusion partners need not be part of it.

As to “POLE3 accessory subunit of human DNA Polymerase Epsilon (from UniProt Q9NRF9 1-147)”, the binding result in test [1] and in test [2] was “binds” throughout.

For the molecule “endogenous POLE3 (from UniProt Q9NRF9 1-147)”, the binding result with WT FLAG-POLE1 (human) is listed as “binds”.

As to “endogenous POLE1 (from UniProt Q07864 1-2286) (enzyme)”, the binding result in the test with FLAG-POLE4 D53K (human) is reported as “no binding”; with WT FLAG-POLE3 (human), “binds”; with WT FLAG-POLE4 (human) it was “binds”.

B1: POLE4 accessory subunit of human DNA Polymerase Epsilon (protein, UniProt Q9NR33 1-117)
chain: T1 sequence with K53D
B1: the binding result in test [1] and in test [2] was “binds” each time.
